According to publication PMC11993666 (2025):

Molecular target: ChiLob7/4 hIgG1
Experiment: SPR

Chain of ChiLob7/4 hIgG1 (P25942 21-277): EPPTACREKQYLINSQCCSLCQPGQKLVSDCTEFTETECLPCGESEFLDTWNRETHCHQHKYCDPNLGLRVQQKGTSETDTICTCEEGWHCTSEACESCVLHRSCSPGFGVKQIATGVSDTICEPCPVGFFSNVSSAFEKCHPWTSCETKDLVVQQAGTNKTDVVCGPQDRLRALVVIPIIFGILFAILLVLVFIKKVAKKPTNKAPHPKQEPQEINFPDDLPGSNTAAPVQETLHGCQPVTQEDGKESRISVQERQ

B1: hCD40 (as used in SPR) (receptor)
chain: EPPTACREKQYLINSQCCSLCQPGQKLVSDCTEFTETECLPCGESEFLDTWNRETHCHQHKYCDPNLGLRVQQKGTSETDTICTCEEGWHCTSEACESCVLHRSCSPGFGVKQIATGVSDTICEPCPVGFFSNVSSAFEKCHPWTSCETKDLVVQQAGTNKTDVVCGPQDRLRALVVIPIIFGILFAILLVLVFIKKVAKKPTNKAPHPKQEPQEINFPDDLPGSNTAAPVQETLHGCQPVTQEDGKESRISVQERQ
- Kd: 0.579 nM
- koff: 7.47e-05 s⁻¹
